MIC of N. gonorrhoeae strains collected 1971-2005, agar dilution (CLSI M07); ranges 0.03-64 mg/L (penicillin, azithromycin), 0.015-1 (cefixime, ceftriaxone), 0.5-256 (spectinomycin); higher = less susceptible. No active / inactive call per row; the paper counts cefixime and ceftriaxone above 0.25 and azithromycin above 1 mg/L as non-susceptible. The source says 'penicillin'; penicillin G is assumed. Isolates are numbered anew.
How the values were obtained:
Assay in all cases: Agar dilution by CLSI M07.
[1] = compound: C=CC1=C(C(=O)O)N2C(=O)[C@@H](NC(=O)/C(=N\OCC(=O)O)c3csc(N)n3)[C@H]2SC1 [cefixime]
[2] = compound: CC1(C)S[C@@H]2[C@H](NC(=O)Cc3ccccc3)C(=O)N2[C@H]1C(=O)O [penicillin G]
[3] = compound: CC[C@H]1OC(=O)[C@H](C)[C@@H](O[C@H]2C[C@@](C)(OC)[C@@H](O)[C@H](C)O2)[C@H](C)[C@@H](O[C@@H]2O[C@H](C)C[C@H](N(C)C)[C@H]2O)[C@](C)(O)C[C@@H](C)CN(C)[C@H](C)[C@@H](O)[C@]1(C)O [azithromycin]
[4] = compound: CN[C@@H]1[C@H](O)[C@H](NC)[C@H]2O[C@@]3(O)C(=O)C[C@@H](C)O[C@H]3O[C@@H]2[C@H]1O [spectinomycin]
[5] = compound: CO/N=C(\C(=O)N[C@@H]1C(=O)N2C(C(=O)O)=C(CSc3nc(=O)c(O)nn3C)CS[C@H]12)c1csc(N)n1 [ceftriaxone]

| Test System | MIC [1] | MIC [2] | MIC [3] | MIC [4] | MIC [5] |
| --- | --- | --- | --- | --- | --- |
| Neisseria gonorrhoeae isolate 124 (GyrA: D95N, ParC: Wild type, mtrR: A39T, penA: Type II NonMosaic, A517G, ponA: Wild type, porB: Wild type) | ≤ 0.015 µg/mL | 0.125 µg/mL | ≤ 0.03 µg/mL | 16 µg/mL | ≤ 0.015 µg/mL |
| Neisseria gonorrhoeae isolate 125 (GyrA: Wild type, ParC: Wild type, mtrR: -35A Del, A39T, penA: Type IV NonMosaic, A517G, G543S, ponA: L421P, porB: G120D) | 0.03 µg/mL | 1 µg/mL | 0.25 µg/mL | 16 µg/mL | 0.03 µg/mL |
| Neisseria gonorrhoeae isolate 126 (GyrA: S91F, ParC: Wild type, mtrR: A39T, penA: Type II NonMosaic, A517G, ponA: Wild type, porB: G120D) | ≤ 0.015 µg/mL | 32 µg/mL | ≤ 0.03 µg/mL | 16 µg/mL | ≤ 0.015 µg/mL |
| Neisseria gonorrhoeae isolate 127 (GyrA: Wild type, ParC: Wild type, mtrR: -35A Del, penA: Type II NonMosaic, A517G, ponA: Wild type, porB: G120D) | ≤ 0.015 µg/mL | > 64 µg/mL | ≤ 0.03 µg/mL | 16 µg/mL | ≤ 0.015 µg/mL |
| Neisseria gonorrhoeae isolate 128 (GyrA: Wild type, ParC: Wild type, mtrR: A39T, penA: Type II NonMosaic, A517G, ponA: Wild type, porB: Wild type) | ≤ 0.015 µg/mL | 0.125 µg/mL | ≤ 0.03 µg/mL | 16 µg/mL | ≤ 0.015 µg/mL |
| Neisseria gonorrhoeae isolate 129 (GyrA: S91F, D95N, ParC: S88P, mtrR: -35A Del, G45D, penA: Type X Mosaic, N513Y, ponA: L421P, porB: G120K, A121D) | 0.5 µg/mL | 4 µg/mL | 0.125 µg/mL | 16 µg/mL | 0.125 µg/mL |
| Neisseria gonorrhoeae isolate 130 (GyrA: Wild type, ParC: Wild type, mtrR: Wild type, penA: Type I NonMosaic, ponA: Wild type, porB: Wild type) | ≤ 0.015 µg/mL | 0.25 µg/mL | 0.125 µg/mL | 16 µg/mL | ≤ 0.015 µg/mL |
| Neisseria gonorrhoeae isolate 131 (GyrA: S91F, D95G, ParC: Wild type, mtrR: -35A Del, penA: Type V Nonmosaic, A517G, G543S, ponA: L421P, porB: G120K, A121D) | 0.03 µg/mL | 2 µg/mL | 0.5 µg/mL | 16 µg/mL | 0.06 µg/mL |
| Neisseria gonorrhoeae isolate 132 (GyrA: Wild type, ParC: Wild type, mtrR: -35A Del, penA: Type 69 NonMosaic, A517G, ponA: L421P, porB: G120K, A121D) | ≤ 0.015 µg/mL | 2 µg/mL | 0.25 µg/mL | 16 µg/mL | 0.03 µg/mL |
| Neisseria gonorrhoeae isolate 133 (GyrA: Wild type, ParC: Wild type, mtrR: -35A Del, G45D, penA: Type II NonMosaic, A517G, ponA: L421P, porB: G120N, A121D) | ≤ 0.015 µg/mL | 2 µg/mL | 0.25 µg/mL | 16 µg/mL | 0.06 µg/mL |
| Neisseria gonorrhoeae isolate 134 (GyrA: Wild type, ParC: Wild type, mtrR: -35A Del, G45D, penA: WT NonMosaic, ponA: L421P, porB: G120D, A121D) | ≤ 0.015 µg/mL | 1 µg/mL | 0.5 µg/mL | 16 µg/mL | ≤ 0.015 µg/mL |
| Neisseria gonorrhoeae isolate 135 (GyrA: Wild type, ParC: Wild type, mtrR: -35A Del, A39T, penA: Type IV NonMosaic, A517G, G543S, ponA: L421P, porB: G120D) | 0.03 µg/mL | 2 µg/mL | 0.25 µg/mL | 32 µg/mL | 0.03 µg/mL |
| Neisseria gonorrhoeae isolate 136 (GyrA: S91F, D95G, ParC: Wild type, mtrR: -35A Del, penA: Type V Nonmosaic, A517G, G543S, ponA: L421P, porB: G120K, A121N) | 0.125 µg/mL | 4 µg/mL | 0.25 µg/mL | 16 µg/mL | 0.06 µg/mL |
| Neisseria gonorrhoeae isolate 137 (GyrA: D95N, ParC: Wild type, mtrR: A39T, penA: Type XXII NonMosaic, A517G, ponA: Wild type, porB: Wild type) | ≤ 0.015 µg/mL | 0.125 µg/mL | 0.125 µg/mL | 32 µg/mL | ≤ 0.015 µg/mL |
| Neisseria gonorrhoeae isolate 138 (GyrA: Wild type, ParC: Wild type, mtrR: -35A Del, G45D, penA: Type I NonMosaic, ponA: Wild type, porB: G120D, A121D) | ≤ 0.015 µg/mL | 0.06 µg/mL | ≤ 0.03 µg/mL | 8 µg/mL | ≤ 0.015 µg/mL |
| Neisseria gonorrhoeae isolate 139 (GyrA: Wild type, ParC: Wild type, mtrR: Wild type, penA: Type II NonMosaic, A517G, ponA: Wild type, porB: porB1a) | ≤ 0.015 µg/mL | 0.125 µg/mL | 0.125 µg/mL | 16 µg/mL | ≤ 0.015 µg/mL |
